# The whole screen tested about 320,000 compounds, of which about 9,100 (2.8%) were called active. The inconclusive results got no clear call from the source; some entries with a clear call stand among them for comparison. The call rests on the fitted dose curve; in most records, active means well fitted activation curve with a large enough effect; inconclusive means small, poorly fitted or top-dose-only effect; inactive means no such curve, though single readings can be large or run the other way. No potency is given beside an inconclusive call; the fits are too rough.
# Assay: qHTS Assay for Rab9 Promoter Activators; further: nearly all actives have a fitted effect of over 60% in size; on activation, negative = inhibition: % of control where 0% means no effect
# Conditions: Huh7 Rab9 promoter-luciferase reporter, luminescence, 24 h; series mostly up to 9.22 µM; activation, negative = inhibition: at the top concentration
# In short: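 Steps: seed 1500 Huh7 Rab9-luc cells per well, rest 2 h at 37 °C; add compound in DMSO; incubate 24 h; add luciferase reagent, 10 min ambient; read luminescence.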
# Potency means the concentration at half of the fitted maximal effect; tags describe the fitted curve by direction and shape.
Structure (SMILES),Potency,"activation, negative = inhibition"
O=C(N/N=C/c1cccc([N+](=O)[O-])c1)c1cccc(Br)c1,"inconclusive [activator, partial curve]",
CC(=O)NCCc1ccc(C(=O)Cn2cnc3ccccc3c2=O)cc1,"inconclusive [activator, partial curve]",
O=C(/C=C/c1cccc2ccccc12)c1ccncc1,,inactive: -7.63%
CCOc1ccccc1/C=C(\C#N)C(=O)Nc1cccc(C(=O)O)c1,"inconclusive [activator, single point]",
CC(=O)c1cccc(NC(=O)CO/N=C2/CCCc3nonc32)c1,,inactive: 3.48%
CCCCOc1ccc(C(=O)NNC(=O)C2C3CCC(C3)C2C(=O)O)cc1 (configuration not stated),"inconclusive [activator, partial curve]",
O=C(CCCN1C(=O)C(c2ccccc2)Oc2cccnc21)Nc1ccccc1Cl (configuration not stated),"inconclusive [activator, single point]",
CCCCc1cc(=O)oc2cc(OCC(=O)NCc3ccccn3)ccc12,,inactive: 0.97%
O=C(CSc1ccc(-c2ccccc2)nn1)Nc1ccc2c(c1)OCCO2,"inconclusive [activator, single point]",
O=C(CCSCc1ccccc1F)N1CCN(c2ccccn2)CC1,"inconclusive [activator, single point]",
O=C(CN1C2CCCC1CC(NC(=O)C1CCCCC1)C2)NCc1ccc(F)cc1 (configuration not stated),,inactive: -10.8%
CNc1ccc(/C=C2\COc3ccccc3C2=O)cc1[N+](=O)[O-],"inconclusive [activator, partial curve]",
COc1cccc(CN2CCN(CC(=O)Nc3ccccc3Cl)CC2)c1,,inactive: 5.77%
Cc1cccc2sc(NC(=O)CNS(=O)(=O)c3ccc(Br)s3)nc12,,inactive: 6.16%
Cc1ccc2nc(SCC(=O)c3c(C)[nH]c4ccccc34)[nH]c2c1,,inactive: 1.59%
COc1ccc(Nc2nc(N)nc(CSC(=S)N3CCOCC3)n2)cc1,"inconclusive [activator, single point]",
CSc1nc2ccc(NC(=O)c3ccc(F)c(F)c3)cc2s1,"inconclusive [activator, partial curve]",
CCOc1ccc(S(=O)(=O)NCCC(=O)N2CCCN(C)CC2)cc1,,inactive: 2.57%
O=C(Nc1ccc(-c2cn3ccccc3n2)cc1)c1ccco1,active: 3.16 µM,
O=C(Nc1nc(-c2cccs2)cs1)c1cccc(S(=O)(=O)N2CCCCCC2)c1,"inconclusive [activator, partial curve]",
O=C(N/N=C\c1ccoc1)c1ccco1,,inactive: 9.16%
Cc1ccsc1C1NC(=O)c2c(sc3c2CCCC3)N1 (configuration not stated),"inconclusive [activator, single point]",
CNS(=O)(=O)c1ccc(NCC2COc3ccccc3O2)c([N+](=O)[O-])c1 (configuration not stated),,inactive: 8.97%
CC(C)c1ccc(CNc2ccc([N+](=O)[O-])cn2)cc1,"inconclusive [activator, partial curve]",
N/C(=N\OC(=O)c1cccnc1)c1ccc(Cl)cc1Cl,"inconclusive [activator, single point]",
COc1ccc2cc(C(N)=O)c(=Nc3ccccc3)oc2c1,active: 1.58 µM,

Structure (SMILES),Potency,"activation, negative = inhibition"
O=C(NCCCn1ccnc1)c1cc(-c2ccncc2)nc2ccccc12,,inactive: 1.39%
CCC(C)c1ccc(Nc2ncccc2C#N)cc1 (configuration not stated),"inconclusive [activator, partial curve]",
CCOc1ccc2nc(NC(=O)c3ccco3)sc2c1,active: 0.316 µM,
Cc1cc(-c2cccc([N+](=O)[O-])c2)nc2ccc3ccccc3c12,"inconclusive [activator, single point]",
Cc1cccc(-n2c(C)cc(/C=N\NC(=O)c3cccs3)c2C)c1,"inconclusive [activator, partial curve]",
Nc1ccc(-n2cc(-c3ccccc3)[nH]c2=S)cc1,"inconclusive [activator, partial curve]",
O=C(Nc1nc2ccccc2[nH]1)c1cccc(F)c1,"inconclusive [activator, single point]",
Cc1ccc2[nH]c(=O)c(CN(CCCN(C)C)C(=O)Nc3ccc(Cl)cc3)cc2c1,"inconclusive [activator, single point]",
Cn1cc(SCC(=O)Nc2nccs2)c2ccccc21,"inconclusive [activator, single point]",
CCOC(=O)N1CCC(NC(=O)c2oc3c(F)cccc3c2C)CC1,"inconclusive [activator, partial curve]",
CCc1ccc(/C=C2\SC(=S)N(CCCC(=O)Nc3ccccn3)C2=O)cc1,,inactive: -20.2%
Cc1nc(-c2ccc(Cl)cc2)sc1C1(C)CC(c2cccnc2)=NO1 (configuration not stated),"inconclusive [activator, single point]",
CNc1ncc(C(=O)c2ccc(F)cc2)s1,"inconclusive [activator, partial curve]",
COc1cccc(N2CCN(C(=O)c3ccc4nc(N5CCC(C)CC5)sc4c3)CC2)c1,"inconclusive [activator, partial curve]",
CN1C=CC(=C2C(=O)c3ccccc3C2=O)C=C1,active: 0.355 µM,
Cc1ccccc1-n1c(C)nnc1SCc1nc2ccccc2s1,,inactive: 27.6%
COc1nc(C)ccc1-c1noc(-c2ccncc2)n1,"inconclusive [activator, partial curve]",
Cc1ccc(C(=O)NC2CCCCC2)cc1,active: 2.51 µM,
C=C(C)C1Cc2cc3ccc(=O)oc3cc2O1 (configuration not stated),"inconclusive [activator, partial curve]",
COC(=O)Cc1ccc(NC(=S)Nc2ccccn2)cc1,"inconclusive [activator, single point]",
CCn1c(SCC(=O)Nc2c(C#N)cnn2-c2ccccc2)nnc1-c1cccs1,,inactive: -3.64%
CCNc1nc(NC(C)C)nc(OCCNS(=O)(=O)c2cc(C)ccc2C)n1,,inactive: 6.46%
CN(N=Nc1cccc([N+](=O)[O-])c1)c1ccccc1,"inconclusive [activator, single point]",
CCCC1Oc2ccccc2C(=O)N(CC(=O)c2ccc3c(c2)OCCO3)C1=O (configuration not stated),"inconclusive [activator, single point]",
O=C(Nc1ccc2oc(-c3cccnc3)nc2c1)c1ccco1,"inconclusive [activator, single point]",
CN1CCS/C1=C/C=C1/SC(=S)N(Cc2ccccc2)C1=O,"inconclusive [activator, partial curve]",

Structure (SMILES),Potency,"activation, negative = inhibition"
Cc1nc2ccc(NC(=O)COc3ccccc3F)cc2s1,"inconclusive [activator, partial curve]",
O=c1c2ccccc2cnn1-c1nc2ccccc2[nH]1,"inconclusive [activator, partial curve]",
N/C(=N\NC(=O)c1ccc(Cl)cc1)c1cnccn1,"inconclusive [activator, partial curve]",
CCOC(=O)C1=C(N)Oc2cc(O)ccc2C1c1cccc([N+](=O)[O-])c1 (configuration not stated),,inactive: -10.9%
Cc1ccc(C(=O)Nc2cnc3ccccn3c2=O)cc1,active: 1.58 µM,
O=C(CNC(=S)NC(=O)C1CCCCC1)c1ccccc1,"inconclusive [activator, partial curve]",
COc1cc(CNc2ccc(NC(C)=O)cc2)ccc1OCc1ccccc1C,"inconclusive [activator, single point]",
CCOCC(=O)Nc1nc2ccc(C)cc2s1,active: 1.78 µM,
O=C(Nc1nc2c(F)cc(F)cc2s1)C1CC1,"inconclusive [activator, partial curve, poor fit]",
Cc1ccc2sc(-c3ccc(NC(=O)c4cc(-n5cnnc5)ccc4Cl)cc3)nc2c1,"inconclusive [activator, full curve]",
COc1ccc(NC(=O)c2cccnc2SC)cc1S(=O)(=O)N1CCCCC1,,inactive: -0.724%
CC(C)COC(=O)N1CCCC1C(=O)O (configuration not stated),active: 3.16 µM,
Cc1ccc2nc(SCC(=O)NCc3ccc(F)cc3)nc(=O)n2c1,,inactive: 0.662%
Cc1c(NC(=O)c2ccc(-c3ccccc3)cc2)cccc1C(=O)O,"inconclusive [activator, full curve]",
C#CCOCCOCCOCCNc1nc(N2CCN(C(=O)C(Cc3cc4ccccc4[nH]3)n3cc(C(N)Cc4ccc(O)cc4)nn3)CC2)nc(N2CCN(C(=O)C(Cc3cc4ccccc4[nH]3)n3cc(C(N)Cc4ccc(O)cc4)nn3)CC2)n1 (configuration not stated),,inactive: -1.83%
COc1cccc(-c2cc(C(=O)N3CCc4ccccc4C3)[nH]n2)c1,,inactive: 21.9%
O=C(NCCN1CCOCC1)/C(=C/c1ccccc1)NC(=O)c1ccccc1,,inactive: 1.17%
COC(=O)CCC(=O)NC(=S)Nc1cc(Cl)ccc1Cl,,inactive: 1.81%
C=CCn1c(=NC(=O)c2cccs2)sc2cc(NC(C)=O)ccc21,active: 3.98 µM,
Cc1ccc(S(=O)(=O)CC(=O)Nc2ccccn2)cc1,,inactive: 4.36%
ClC(=C\c1ccccc1)/C=N/N1CCN(c2ccccn2)CC1,"inconclusive [activator, partial curve]",
Cc1nn(C(=O)c2cccs2)c(N)c1-c1ccccc1,"inconclusive [activator, single point]",
c1ccc(-n2nnc3ccccc32)nc1,"inconclusive [activator, single point]",
Cc1ccc(OCc2cc(C(=O)N(CCO)Cc3cccs3)no2)cc1C,active: 3.55 µM,
COc1ccc(NC(=O)n2ncc3c(C)cccc32)cc1OC,active: 3.16 µM,
